Measurements reported in the supplement of paper PMC11417369.
The other results are listed elsewhere or left out.

tested on: PfHDP1 homeodomain (GST-tagged); test: gcPBM binding intensity (ln(normalized median fluorescence intensity)); higher = stronger DNA binding
Method in brief: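 Binding intensity values are the highest Masliner-normalised natural-log median intensity among replicate spots of either probe orientation. The binding step lasted 1 h in 1× PBS with 1% milk, 0.2 mg/ml BSA, 0.5% salmon testes DNA and 0.03% Triton X-100, using GST-tagged P. falciparum DNA-binding domains expressed in E. coli on an Agilent 4 × 180k array of primer-extended double-stranded 36-bp intergenic genomic probes plus negative controls. Alexa488 anti-GST antibody and a 488 nm scan detected bound protein.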

Row | Sequence | gcPBM binding intensity (ln)
1 | TATAACATTTTTTTCAAAATAGCTTTAGAAATAAAG [CACACA_negctrl_site718] | 5.83
2 | ATTTATTTTTTACATTGTACATATTTATTCCTTTTA [XGTACX_site8028] | 6.81
3 | ATATGTGGAAATAGAGCACACATATATATAATATAT [CACACA_site8194] | 6.95
4 | TATGTATATATATAAAGTACGCAAATTTATAATAAG [XGTACX_site8744] | 6.78
5 | TTTTTTTTCTTCAAGCGTACTTATTTGTAGAAAAAA [XGTACX_site1728] | 6.14
6 | AAAATACACAACATATATATATATATATATATATAT [XGTACX_negctrl_site21] | 9.63
7 | TTTTGTTTTAAAAGTACACACTTTTAATTAGATTTC [CACACA_site4788] | 6.15
8 | TGATCAATGGATTTAACACACAAAAAAAAAAAAAAA [CACACA_site3845] | 6.1
9 | TTAAAAGAAAATAACACACACAAAAAAAAAAAAAAA [CACACA_site2117] | 6.44
10 | TAAGGACTAATATTTGAACACACATATAATATATAC [CACACA_site9325] | 6.46
11 | TATATATTTGTTCACACACACACAAAAAAAAAAAAA [CACACA_site2475] | 6.58
12 | GTCATCAAGTATTAAGTGCATTAAAAATAAAATATA | 9.4
13 | CATATATATATATATATATATATATTTATTTATTTA [TGCATGCA_negctrl_site165] | 7.57
14 | TCCCTTAAAATGATATGTACATAAAAATAAAAAAAA [XGTACX_site836] | 6.72
15 | TAAATATTATAAATGATACACACTTAAAATACTCAC [CACACA_site2710] | 6.43
16 | TATAAATTTAAAATGACACACACTAAAGTTATTTAA [CACACA_site6700] | 5.98
17 | AACATAAGTAAGAATACATGCGGAAATTATATAGAA [TGCATGCA_site112] | 6.99
18 | CATACACATACACATACACACGCATAGAAACATACG [CACACA_site8666] | 8.09
19 | AATTTTTCATCAAGTTGTACAATTATTTGTTTGTTT [XGTACX_site3113] | 6.63
20 | AAATTCAGGTTATATTTTAATTTTTTTTTGTTTTTT [CACACA_negctrl_site924] | 6
21 | CAATATTTTTTATAGGGTACAAAAGATAAAAAAAAA [XGTACX_site6298] | 6.8
22 | AAAACAATAATATACTGTACATATATATAATAACAT [XGTACX_site6188] | 6.75

Row | Sequence | gcPBM binding intensity (ln)
23 | AAAATTTTCTTTTTATGTACACATAATTTTACCGGA [XGTACX_site5276] | 6.61
24 | CATATTTGGAAACACACACACATATTTATATATATA [CACACA_site3569] | 7.32
25 | AAAAGAAAAAGAAAAACACACATAAATATAAATATA [CACACA_site1879] | 6.32
26 | TATATTTTACTCTTCACACATATACTCAATTTATAT [CACACA_site5357] | 7.08
27 | GTAATATGTATCCATACACACATACATTTTATTTGC [CACACA_site4640] | 6.7
28 | TCACATATGTTCCATTGTACTTGTAGTAATTTTTTC [XGTACX_site6473] | 6.5
29 | ATAAAATGAAATATATGTACGCATCACTTGTTGAAC [XGTACX_site4530] | 6.54
30 | AGAAAAGGACATATATGTACTTATCAATATAGAAAC [XGTACX_site1042] | 6.5
31 | AAAAAAAAAAAAAAAACATGCAAAATAATATATATA [TGCATGCA_site68] | 6.8
32 | GTACATACATAAAACACACACATATATATATATATA [CACACA_site1826] | 9.31
33 | TGCTAATAATTATTTGTTTAGCAACAAAAAAAAAAA [CACACA_negctrl_site1541] | 6.06
34 | TAATTAAAAAATAAAAAAAAAAAAAATTAAAACAAA [CACACA_negctrl_site500] | 6.08
35 | TTCTTTTTAATTTATTTTTTCTTATAACAAGAAAAC [CACACA_negctrl_site201] | 6.74
36 | CATACACGCGGACACACACACACACGCATATATAAC [CACACA_site6427] | 7.14
37 | ACATATATATATATATAAATATATATGTATGTATTT [XGTACX_negctrl_site237] | 6.52
38 | ATTATATTTGAATGGTGTACTATAATAATGTAGTTT [XGTACX_site8069] | 6.45
39 | GAATAAATTAAATTCACACATAAAATACAAAATACA [CACACA_site5495] | 6.86
40 | CTTATATTAATTATTACACACATATATATAAATGCA [CACACA_site770] | 6.79
41 | AAAGAAAATAGGTGTACACATAATAAATACAGCTAT [CACACA_site5917] | 7.25
42 | AAAATAATATTTAATACACACATAATTACAATATAA [CACACA_site6510] | 6.52
43 | TTATTACGAACTCTGCAACATATATAAATAAATAAA [CACACA_negctrl_site44] | 6.86
44 | TACGTATTCATGTATAGTACTCTTTTTTTTAATAAA [XGTACX_site3299] | 6.19

Row | Sequence | gcPBM binding intensity (ln)
45 | ACAAGTGTATATGTTATATATATATATATATATATA [CACACA_negctrl_site1686] | 9.41
46 | AAAGATAAAATATATACACACACATAAATACGTACA [CACACA_site8275] | 6.96
47 | ATTTATATTTTATATACACACATGAACTTATATGGA [CACACA_site3167] | 6.54
48 | GAATATAAAAGGAACGGTACAGAAAAAAAAAAAAAA [XGTACX_site3917] | 6.41
49 | TTTATTTTTTATATATCACTTAAAAAAAAAAAAAAA [CACACA_negctrl_site249] | 6.3
50 | ATGTAATATATTATATGTACATATTTTTATGTAGAT [XGTACX_site5945] | 6.67
51 | CTTTTTTTTTTATGCACACACAATTATACATTCCTT [CACACA_site3877] | 10.6
52 | ATAACCTAATAATACACACACATGAATATATATAAT [CACACA_site4689] | 7.17
53 | AATATAGTCTCACATACACACATATATATTTATATA [CACACA_site2503] | 6.9
54 | AAAACAAATAAGTAAACACACATATATAATATATAT [CACACA_site2586] | 6.7
55 | AAAAAAAAAAAAACTAGTACATATATATAGTATGAA [XGTACX_site6279] | 6.33
56 | CCATGATTATTAGATTGTACATAACATACAAATTGA [XGTACX_site314] | 6.39
57 | AATGTGCAGAAAAGTGGTACATATGATTGTTAAGAG [XGTACX_site1038] | 7.58
58 | AATATATTTTTTTTTGGTACACAAGCACATCTATAC [XGTACX_site2183] | 6.76
59 | TTTCGATTATGTTTTTGTACGCAATATATTAATTCT [XGTACX_site3634] | 6.51
60 | TACCTTTTTTATGTTGCACACTGGGATGTTTTCTAA [CACACA_site1653] | 9.42
61 | ATTCATATTTTTCAAGTGCGCATTAAAATATTAACC [GTGCAC_site9741] | 8.58
62 | ATGTCATATATATGTTGTACGAGTTTGTTTATGTAT [XGTACX_site1150] | 6.97
63 | TTCATTTTATAAAAAGCACACATATAGTTATATGCA [CACACA_site9228] | 6.45
64 | AGTTTACATTAAATCACGCACACAAAAAAAAAAAAA [CACACA_site2419] | 6.48
65 | TGCACATTTATGTAACGTACAAAATATAATATGTTA [XGTACX_site8255] | 6.51
66 | GTATAAAAGTAATGTAGTACTTATATATTTTTATTT [XGTACX_site8975] | 6

Row | Sequence | gcPBM binding intensity (ln)
67 | GGTTGCTTCAGTGAATGTACATAGTGGTAAACAAGC [XGTACX_site166] | 7.58
68 | TCCTTATATTGGCACACACACACAATAAAATGAAAA [CACACA_site4715] | 7.07
69 | TGGGAGCACAGACACACACACACACCCATATATATA [CACACA_site335] | 8.04
70 | TACAAAATAAAAATAATTCTTTCAAAAAATAATAAA [XGTACX_negctrl_site368] | 5.86
71 | AGTAATATAATATAAGCACACGTGTATTTATTTAGT [CACACA_site4246] | 6.76
72 | AGTTTAATATAAAATACACACTACTCTTATAAATAT [CACACA_site6803] | 6.51
73 | ATTTTCTTTCTATGCACACGCACGTATTTGCACCCA [CACACA_site3350] | 10.9
74 | GAAATAATAAATTAAAAATCGTTTATAACATTTAAC [CACACA_negctrl_site425] | 6.21
75 | CTTTTTTTTTGATGTTGTACATATATATTATATAAT [XGTACX_site1321] | 6.9
76 | GTATATAATATTAGTGCACACACAAAAATGTACTAA [CACACA_site8112] | 10.3
77 | GAAAATTTATTTTTGGTGCATGTATTTATTTATTTT | 9.03
78 | ATTTCTAATATTTTTGCACACTAAACAATAAATTTC [CACACA_site3943] | 9.98
79 | ATATATGTTATTATTTGTACACACACATATATATCC [XGTACX_site7657] | 7.14
80 | TTTTTAATTTAAAAAAATAATATTTTATATTCCGAA [CACACA_negctrl_site108] | 6.25
81 | AAATATTTATATATATGTACACATATAATATTTTTA [XGTACX_site2338] | 6.2
82 | TATTTTTTATTTTTTTGTACATATTTGATAATTAAT [XGTACX_site316] | 6.79
83 | GTAAGCATCAAAAAAGGTACAGAAATTATAAATAAA [XGTACX_site6708] | 6.18
84 | CATTTATTTATATACACACACACAAAAAAAAAAAAA [CACACA_site7279] | 6.75
85 | TGCTATATTATTATCGCACACCGTTGATTCTAAATA [CACACA_site1207] | 6.64
86 | ATAAGTGTATAAAAATGTACGTGTATAAAAATATGT [XGTACX_site8235] | 7.26
87 | TATATATATTCTTTAAAACACACGTAAAGAAGAATT [CACACA_site2718] | 6.86
88 | AAAAAAAAAAGAAACACACACATATATATATATAAT [CACACA_site5052] | 6.7
